Assay results published in PubChem BioAssay AID485341 (National Center for Advancing Translational Sciences (NCATS), 2010).
The whole screen tested about 330,000 compounds, of which about 1,700 (0.52%) were called active. The shares of active, inactive and inconclusive entries below differ from those in the screen. Calls follow the shape of the dose curve; as a rule, active = well fitted inhibition curve with a large enough effect; inconclusive = small, poorly fitted or top-dose-only effect; inactive = no such curve, though single readings can be large or run the other way. A potency beside an inconclusive call is a rough fit, not a confirmed value.

What follows are compounds tested against Beta-lactamase (Escherichia coli (strain K12)) (UniProt P00811) (assay: qHTS Inhibitors of AmpC Beta-Lactamase (assay without detergent)). Settings: AmpC nitrocefin hydrolysis, absorbance 480 nm, 0.0001% Triton; activity change, negative = inhibition: at 57.1 µM (top of the series) unless noted.
Method in brief: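 AmpC (5.3 nM in the dispensed reagent) in 20 mM phosphate pH 7.0 with 0.01% (detergent screen) or 0.0001% Triton X-100 was preincubated with compounds for 15 min at room temperature. Nitrocefin was then added from an 800 uM solution, and hydrolysis was followed at 480 nm.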
Also: nearly all actives have a fitted effect of over 20% in size.
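For activity change, negative = inhibition in this document: plate controls were no compound for no effect and no enzyme for full effect.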
Potency is read from the fitted curve at half-maximal effect; tags tell the direction and shape of the fitted curve.

UniProt P00811, sequence (P00811 whole entry, looked up): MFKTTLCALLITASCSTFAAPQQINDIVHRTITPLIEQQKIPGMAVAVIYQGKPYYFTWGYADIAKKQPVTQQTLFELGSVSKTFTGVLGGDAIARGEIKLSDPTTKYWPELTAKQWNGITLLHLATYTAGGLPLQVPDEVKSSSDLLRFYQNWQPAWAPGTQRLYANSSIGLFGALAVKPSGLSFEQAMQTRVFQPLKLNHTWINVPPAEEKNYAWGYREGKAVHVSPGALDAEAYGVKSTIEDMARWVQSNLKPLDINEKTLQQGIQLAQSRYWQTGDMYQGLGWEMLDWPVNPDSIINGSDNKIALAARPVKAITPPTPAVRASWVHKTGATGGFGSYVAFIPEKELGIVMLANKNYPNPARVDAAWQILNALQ

Structure (SMILES)	Potency	activity change, negative = inhibition
Cc1cccc(/C=N/n2c(-c3cc(-c4ccccc4)n[nH]3)n[nH]c2=S)c1	inconclusive: 2.51 µM [inhibitor, full curve, poor fit]	
COc1cccc(C(=O)NC2CCN(C(=O)N3c4ccccc4Sc4ccccc43)CC2)c1	inconclusive: 8.91 µM [inhibitor, single point]	
NC(=O)c1nsc(C(=O)N(CC(=O)NCc2ccc3c(c2)OCO3)C2CCCCC2)c1N	inconclusive: 11.2 µM [inhibitor, partial curve]	
N#CCC(=O)Nc1ccc(C(=O)OCC(=O)Nc2cccc(C(F)(F)F)c2)cc1	active: 15.8 µM	
O=S1(=O)C=CC(N2CCOCC2)C1 (centres undefined)	inconclusive: 6.31 µM [inhibitor, single point]	
CCOc1cc(/C=C2\C(=N)N3N=C(S(=O)(=O)CC)SC3=NC2=O)ccc1OC(=O)c1ccco1	inconclusive: 8.91 µM [inhibitor, full curve, poor fit]	
O=C(Nc1ccc(F)cc1)c1ccccc1CC[N+](=O)[O-]	inconclusive: 0.141 µM [inhibitor, full curve, poor fit]	
CC(NC(=O)CSC(=S)N1CCCC1)c1ccc(S(N)(=O)=O)cc1 (centres undefined)	inconclusive: 39.8 µM [inhibitor, single point]	
CCOc1ccc(NC(=O)C2CC(=O)N(Cc3ccco3)C2)cc1 (centres undefined)		inactive: -9.76%
Cc1ccc(C(=O)Oc2coc(CSc3nnc(NC(=O)c4cccs4)s3)cc2=O)cc1C	active: 7.08 µM	
N#Cc1c(-c2cccnc2)cc(-c2ccccc2)nc1N		inactive: -22.9%
Cc1cc(C)n(CCCN2CCC(C(=O)Nc3cccc(-c4cccc(F)c4)c3)CC2)n1		inactive: 158%
CCCCNS(=O)(=O)c1ccc2nc(SCC(=O)Nc3cccc(F)c3)[nH]c2c1		inactive: -13.7%
Cc1ccc(NC(=S)NC(=O)C2CC2)c(C)c1		inactive: -21%
C/C(CC(=O)N1CCCC1)=N\NC(=O)c1cc2ccccc2cc1O	inconclusive: 14.1 µM [inhibitor, partial curve]	
COCCN=c1scc(-c2ccco2)n1/N=C/c1ccc(O)c(O)c1O	inconclusive: 17.8 µM [inhibitor, partial curve, poor fit]	
O=C(N/N=C/c1cccc(C(F)(F)F)c1)c1cc2c(s1)-c1ccccc1CC2	active: 0.158 µM	
COc1cc(NC(=O)c2cc3ccccc3cc2O)c(OC)cc1Cl	active: 3.55 µM	
COc1ccc(CCNC(=O)c2[nH]c(C)c(C(C)=O)c2C)cc1OC	inconclusive: 1.12 µM [inhibitor, partial curve, poor fit]	
COc1ccc(Cl)cc1NC(=O)c1cc(-c2ccccc2O)n[nH]1	inconclusive: 31.6 µM [inhibitor, single point]	
O=C(CSc1ncnc2ccccc12)Nc1ccc2c(c1)OCCO2	inconclusive: 3.16 µM [inhibitor, partial curve, poor fit]	
Cc1ccc(O)c(N=NC2=C(O)CC(C)(C)CC2=O)c1		inactive: -16%
COCc1nn2c(N)c(-c3ccccc3)cnc2c1-c1ccccc1		inactive: 129%

Structure (SMILES)	Potency	activity change, negative = inhibition
O=C(NCC1CCCO1)c1ccc2c(c1)N(Cc1ccccc1)C(=O)CS2=O (centres undefined)	inconclusive: 100 µM [inhibitor, partial curve, poor fit]	
CCCOC(=O)c1ccc(OCC(O)Cn2c(C)nc3ccccc32)cc1 (centres undefined)	inconclusive: 0.316 µM [inhibitor, full curve, poor fit]	
COc1ccc(/C(C)=N/NC(=O)c2ccc(NS(=O)(=O)c3cccs3)cc2)cc1	active: 10 µM	
CC(C)c1cc(C(=O)N/N=C/c2cccnc2)cs1	inconclusive: 35.5 µM [inhibitor, single point]	
CCOC(=O)C1C(=O)NC(c2ccccc2)=NC1c1ccc(Cl)cc1 (centres undefined)	inconclusive: 6.31 µM [inhibitor, single point]	
OC(CSc1ccccc1Cl)CN1CCN(c2ccccc2F)CC1 (centres undefined)	inconclusive: 2.51 µM [inhibitor, partial curve, poor fit]	
CC(C)CNS(=O)(=O)c1ccc(CCC(=O)N2CCOCC2)cc1	active: 0.224 µM	
O=C(Nc1ccccc1O)N1c2ccccc2Sc2ccccc21	inconclusive: 15.8 µM [inhibitor, partial curve]	
COc1cc(NC(=O)Cn2nnc(-c3ccccc3N)n2)cc(OC)c1	active: 20 µM	
c1cc2n(c1)-c1c(ccc3c1OCO3)CNC2c1ccc2c(c1)OCO2 (centres undefined)	inconclusive: 4.47 µM [inhibitor, single point]	
Clc1cccc(CN2CCN(Cc3nc(CCc4ccccc4)no3)CC2)c1		inactive: 125%
COc1ccc(OC)c(NS(=O)(=O)c2ccc(NC(=O)c3ccc(NS(C)(=O)=O)cc3)cc2)c1	inconclusive: 11.2 µM [inhibitor, single point]	
CCCCNC(=S)N1CCn2cccc2C1c1ccc(F)cc1 (centres undefined)	inconclusive: 25.1 µM [inhibitor, single point]	
CC(C)=C(C#N)c1nc2ccccc2s1		inactive: -23.4%
CC(C)c1ccc2[nH]c(O)c(N=NC(=O)c3cccc(S(=O)(=O)N4CCCCC4)c3)c2c1	active: 6.31 µM	
CCOC(=O)c1sc(NC(=O)C2CC=CCC2C(=O)O)nc1C (centres undefined)	inconclusive: 39.8 µM [inhibitor, single point]	
Cc1nc(C)c(C(=O)N(c2ccc(C)c(C)c2)C(C(=O)NCc2ccco2)c2ccccc2)s1 (centres undefined)	inconclusive: 8.91 µM [inhibitor, single point]	
CCOC(=O)c1ccc(NC(=O)c2cccc(S(=O)(=O)N3c4ccccc4CC3C)c2)s1 (centres undefined)	inconclusive: 3.55 µM [inhibitor, full curve, poor fit]	
CC(=O)Nc1cc2cc(NS(=O)(=O)c3ccc(Cl)cc3)ccc2oc1=O	inconclusive: 39.8 µM [inhibitor, single point]	
CCc1ccc(N2C(=O)NC(=O)/C(=C\C=C\c3ccco3)C2=O)cc1	inconclusive: 2.82 µM [inhibitor, partial curve]	
O=C(N/N=C/c1ccccc1C(=O)O)c1cc(-c2ccc3c4c(cccc24)CC3)n[nH]1	inconclusive: 14.1 µM [inhibitor, partial curve]	
CCCn1c(SCN2C(=O)c3ccccc3C2=O)nc2cc(Cl)ccc2c1=O		inactive: -24%
CCc1ccc(CCC(=O)Nc2sc3c(c2C#N)CCCC3)o1	inconclusive: 12.6 µM [inhibitor, partial curve, poor fit]	

Structure (SMILES)	Potency	activity change, negative = inhibition
COc1ccc(CN2CC(COCc3ccccc3)Oc3ccccc3S2(=O)=O)cc1 (centres undefined)	inconclusive: 7.94 µM [inhibitor, full curve, poor fit]	
Cc1ccc2nc(/C(C#N)=C\c3ccc(Oc4ccc([N+](=O)[O-])cn4)cc3)[nH]c2c1	active: 28.2 µM	
CC(C)=CCc1c(O)cc2c(c1O)C(=O)CC(c1ccc(O)cc1)O2 (centres undefined)	inconclusive: 8.91 µM [inhibitor, partial curve]	
O=C(Cn1nnc(-c2ccc(CN3CCOCC3)cc2)n1)N1CCCc2ccccc21		inactive: 104%
O=C(NC1CCCc2ccccc21)C1CCN(S(=O)(=O)c2cnc[nH]2)CC1 (centres undefined)	inconclusive: 6.31 µM [inhibitor, single point]	
NS(=O)(=O)c1ccc(CCNC(=O)CNS(=O)(=O)c2cccc(Br)c2)cc1	inconclusive: 39.8 µM [inhibitor, single point]	
Cc1ccc(S(=O)(=O)NC(CC(=O)N2CCOCC2)c2ccco2)cc1 (centres undefined)	active: 0.141 µM	
COc1cccc2cc(C(=O)CS(=O)(=O)c3ccc(C(C)(C)C)cc3)c(=O)oc12	active: 17.8 µM	
O=C(Nc1ccc(-c2cn3ccsc3n2)cc1)C1COc2ccccc2O1 (centres undefined)	active: 15.8 µM	
Cc1cc(C(=O)N/N=C/c2cccnc2)cs1		inactive: -10.4%
Cc1ccccc1OCC(=O)N/N=C/c1cccc2cccnc12		inactive: -21.8%
COc1ccc(NC(=O)CSc2nc3c(c(=O)n2-c2ccccc2OC)SCC3)cc1	active: 35.5 µM	
c1cc2c(cc1C1CCCN1)OCCCO2 (centres undefined)	active: 0.224 µM	
O=C(CCCNC(=O)c1ccc(Cl)cc1)Nc1ccc(S(=O)(=O)Nc2ncccn2)cc1		inactive: -15.1%
O=C(/C=C/c1ccco1)Nc1ccc2nn(-c3ccccc3)nc2c1	inconclusive: 20 µM [inhibitor, partial curve]	
CC(NC(=O)c1ccccc1)c1nnc(SCC(=O)Nc2nnc(C3CC3)s2)n1C (centres undefined)	inconclusive: 28.2 µM [inhibitor, single point]	
CN1CCN(C(=O)c2cc3nc(-c4ccccc4)cc(-c4ccccc4)n3n2)CC1		inactive: 219%
CC[C@]12c3[nH]c4cc(-c5ccco5)ccc4c3CCN1C(=O)[C@@H](CC(=O)NCCCOC)C[C@@H]2C(=O)N1CCN(C(=O)c2ccco2)CC1		inactive: 242%
COc1ccccc1S(=O)(=O)Cc1ccc(C(=O)N2CCN(c3ccc(C)cc3)C(C)C2)o1 (centres undefined)	inconclusive: 5.62 µM [inhibitor, full curve, poor fit]	
Cc1ccc2nc(NC(=S)NC(=O)c3ccc(OC(C)C)cc3)sc2c1	inconclusive: 12.6 µM [inhibitor, partial curve]	
COc1ccccc1/C=C/C=N/n1c(-c2ccncc2)n[nH]c1=S	inconclusive: 28.2 µM [inhibitor, single point]	
COc1ccc(Nc2nnc(SC(C(=O)Nc3ccc(OC)c(Cl)c3)c3ccccc3)s2)cc1 (centres undefined)	inconclusive: 2 µM [inhibitor, partial curve]	
NC(=O)c1c(NC(=O)COC(=O)c2ccc(S(=O)(=O)Nc3ccccc3)cc2)sc2c1CCCC2	inconclusive: 5.01 µM [inhibitor, partial curve]	
